Data: the supplement of paper PMC9446081
The campaign covered roughly 39,000 compounds. About 220 (0.56%) showed activity. The list shows a part of the results.
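Further: static incubation at 37 °C against the wild-type strain, values averaged over two biological replicates.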

Each compound was assayed on Escherichia coli K-12 BW25113 (assay: relative growth (OD600 normalised to plate interquartile mean) (fraction); higher = less growth inhibition, active = 0.2 or less). Conditions: 50 µM; LB; incubation time: overnight (16-24 h).
In the case of CCCCN(CCCC)CC(O)c1cc(Cl)cc2c1-c1ccc(Cl)cc1C2=Cc1ccc(Cl)cc1 (stereo not given), the relative growth is reported as inactive: 1.15. NC(=O)OCC(COC(N)=O)c1ccccc1 was tested, and the relative growth was inactive: 0.994. In the case of Cc1nc2ccccn2c(=O)c1CCN1CCC(C(=O)c2ccc(F)cc2)CC1, the relative growth is reported as inactive: 0.874. In the case of Cc1ccc(S(=O)(=O)Nc2ccc3c(c2)C(=O)N([C@@H](C)CO)C[C@@H](C)[C@H](CN(C)S(C)(=O)=O)OCCCC[C@@H](C)O3)cc1, the relative growth is reported as inactive: 1.03. For C[C@@H]1CN([C@@H](C)CO)C(=O)c2cc(NC(=O)Nc3cccc4ccccc34)ccc2O[C@@H](C)CCCCO[C@H]1CN(C)C(=O)Nc1ccc2c(c1)OCO2, the relative growth was inactive: 1.06. Cc1ccc(S(=O)(=O)Nc2ccc3c(c2)C(=O)N([C@H](C)CO)C[C@@H](C)[C@@H](CN(C)Cc2ccc(C(F)(F)F)cc2)OCCCC[C@@H](C)O3)cc1 was tested, and the relative growth was inactive: 1.07. In the case of O=C(O)c1ccc(C(=O)O)nc1, the relative growth is reported as inactive: 0.988. With CSc1nc2cc(Cl)c(Oc3cccc(Cl)c3Cl)cc2[nH]1 the relative growth was inactive: 0.82. With C[C@@H]1CN([C@@H](C)CO)C(=O)c2cc(NS(=O)(=O)c3ccc(Cl)cc3)ccc2O[C@@H](C)CCCCO[C@@H]1CN(C)S(=O)(=O)c1ccccc1 the relative growth was inactive: 0.899. C[C@@H]1CCCCO[C@@H](CN(C)C(=O)NC2CCCCC2)[C@H](C)CN([C@@H](C)CO)C(=O)c2cc(NC(=O)c3ccncc3)ccc2O1 was tested, and the relative growth was inactive: 1.01. In the case of C[C@@H]1CN([C@H](C)CO)C(=O)c2cc(NS(=O)(=O)c3ccccc3)ccc2O[C@@H](C)CCCCO[C@H]1CN(C)C(=O)Nc1ccc(C(F)(F)F)cc1, the relative growth is reported as inactive: 1.01. With Cc1noc(C)c1S(=O)(=O)N(C)C[C@H]1Oc2ccc(NC(=O)C3CC3)cc2CC(=O)N([C@H](C)CO)C[C@H]1C the relative growth was inactive: 1. CN(C)c1cnccn1.O=S(=O)(O)O was tested, and the relative growth was inactive: 1.03. With COCCNC(=O)C[C@@H]1CC[C@@H](NS(=O)(=O)c2ccc(C)cc2)[C@H](CO)O1 the relative growth was inactive: 1.02. In the case of C[C@@H]1CN([C@@H](C)CO)C(=O)Cc2cc(NC(=O)CCN3CCOCC3)ccc2O[C@H]1CN(C)CC1CC1, the relative growth is reported as inactive: 0.993. For C[C@@H]1CCCCO[C@@H](CN(C)S(=O)(=O)c2cn(C)cn2)[C@H](C)CN([C@H](C)CO)C(=O)c2cc(NS(=O)(=O)c3cn(C)cn3)ccc2O1, the relative growth was inactive: 0.994. C[C@@H]1CN([C@H](C)CO)C(=O)c2cc(NC(=O)Nc3ccc(C(F)(F)F)cc3)ccc2O[C@@H]1CN(C)Cc1ccccc1 was tested, and the relative growth was inactive: 0.948. With C[C@H](CO)N1C[C@H](C)[C@@H](CN(C)C(=O)Nc2cccc3ccccc23)Oc2ccc(NC(=O)C3CCCCC3)cc2C1=O the relative growth was inactive: 0.998. With O=C(C[C@H]1CC[C@H](NS(=O)(=O)c2ccccc2F)[C@@H](CO)O1)NCCCN1CCOCC1 the relative growth was inactive: 0.983. For C[C@@H]1CN([C@@H](C)CO)C(=O)c2cc(NC(=O)Nc3ccccc3)ccc2O[C@@H](C)CCCCO[C@H]1CN(C)S(=O)(=O)c1cccs1, the relative growth was inactive: 1.06. With CO[C@@H]1CN(C)C(=O)c2ccc(NS(C)(=O)=O)cc2OC[C@@H](C)N(S(=O)(=O)CC(F)(F)F)C[C@H]1C the relative growth was inactive: 0.981. For COc1ccc(S(=O)(=O)N[C@H]2C=C[C@@H](CC(=O)NCCc3ccncc3)O[C@H]2CO)cc1, the relative growth was inactive: 0.977. For CN(C)[C@@H]1C(=O)[C@@H](C(N)=O)C(=O)[C@@]2(O)C(=O)[C@H]3C(=O)c4c(O)cccc4C[C@H]3C[C@@H]12, the relative growth was inactive: 0.972. In the case of C[S+](CC[C@H](N)C(=O)O)C[C@H]1O[C@@H](n2cnc3c(N)ncnc32)[C@H](O)[C@@H]1O (stereo not given in full), the relative growth is reported as inactive: 0.996. C=CCN(C(=O)[C@H]1N(CCOCCO)C(=O)[C@H]2[C@H](C(=O)O)[C@@H]3C=C[C@@]21O3)C(C)(C)C was tested, and the relative growth was inactive: 1.02. In the case of CO[C@@]12[C@@H]3N[C@@H]3CN1C1=C(C(=O)C(N)=C(C)C1=O)[C@@H]2COC(N)=O, the relative growth is reported as active: 0.0651. In the case of C[C@H](CO)N1C[C@H](C)[C@H](CN(C)S(=O)(=O)c2ccccc2)Oc2ccc(NC(=O)Cn3cnnn3)cc2C1=O, the relative growth is reported as inactive: 1. For CO[C@H](CN(C)S(=O)(=O)c1cccc(Cl)c1)[C@H](C)CN([C@@H](C)CO)S(=O)(=O)c1ccc(Cl)cc1, the relative growth was inactive: 1.05. For c1ccc2c(c1)-c1ccc3ccc4cccc5cc-2c1c3c45, the relative growth was inactive: 1.07. In the case of C[C@H](CO)N1C[C@H](C)[C@@H](CN(C)Cc2ccccc2)Oc2ccc(NC(=O)Nc3cccc4ccccc34)cc2CC1=O, the relative growth is reported as inactive: 0.99. For C[C@H]1CCCCO[C@@H](CN(C)Cc2ccncc2)[C@@H](C)CN([C@@H](C)CO)C(=O)c2cc(NC(=O)c3ccccc3)ccc2O1, the relative growth was inactive: 0.987. COc1ccc(S(=O)(=O)Nc2cccc3c2O[C@H](CN(C)Cc2ccncc2)[C@@H](C)CN([C@H](C)CO)C3=O)cc1 was tested, and the relative growth was inactive: 0.947. C[C@H](CO)N1C[C@H](C)[C@H](CN(C)S(=O)(=O)c2ccc(F)cc2)Oc2ccc(NS(=O)(=O)c3cn(C)cn3)cc2C1=O was tested, and the relative growth was inactive: 1.02. COCC(=O)N1C[C@@H](C)[C@H](OC)CN(C)C(=O)c2cc(NC(=O)c3ccc(F)cc3)ccc2OC[C@@H]1C was tested, and the relative growth was inactive: 1.02. With COc1ccc(S(=O)(=O)N(C)C[C@@H]2Oc3ncc(C#CC4(O)CCCC4)cc3C(=O)N([C@@H](C)CO)C[C@H]2C)cc1 the relative growth was inactive: 0.976. For COCC(=O)N1C[C@@H](C)[C@@H](OC)CN(C)C(=O)c2cc(NC(=O)c3cc(C)on3)ccc2OC[C@@H]1C, the relative growth was inactive: 1.02. For COCC(=O)N(C)C[C@@H]1Oc2cc(C#CC(C)(C)O)ccc2S(=O)(=O)N([C@@H](C)CO)C[C@@H]1C, the relative growth was inactive: 1.01. O=C(O)c1ccc(-c2ccco2)s1 was tested, and the relative growth was inactive: 0.985. For Cc1ccc(S(=O)(=O)N(C)C[C@H]2OCCCC[C@@H](C)Oc3ccc(NS(C)(=O)=O)cc3C(=O)N([C@@H](C)CO)C[C@H]2C)cc1, the relative growth was inactive: 1.02. In the case of CC(C)NC(=O)N(C)C[C@H]1Oc2ccc(NS(=O)(=O)c3ccccc3)cc2C(=O)N([C@@H](C)CO)C[C@H]1C, the relative growth is reported as inactive: 0.979. In the case of C[C@@H]1CCCCO[C@@H](CN(C)C(=O)CCC(F)(F)F)[C@@H](C)CN([C@H](C)CO)C(=O)c2cc(NC(=O)CCC(F)(F)F)ccc2O1, the relative growth is reported as inactive: 0.969. For CCOC(=O)N(C)C[C@H]1OCc2cn(nn2)CCCC(=O)N([C@@H](C)CO)C[C@H]1C, the relative growth was inactive: 0.957. In the case of C[C@@H]1CCCCO[C@@H](CN(C)Cc2ccc3c(c2)OCO3)[C@H](C)CN([C@@H](C)CO)C(=O)c2cc(NC(=O)Nc3ccc4c(c3)OCO4)ccc2O1, the relative growth is reported as inactive: 1.03. In the case of COc1ccc(CN(C)C[C@H]2OCCCC[C@@H](C)Oc3ccc(NS(=O)(=O)c4ccc(C)cc4)cc3C(=O)N([C@H](C)CO)C[C@@H]2C)cc1, the relative growth is reported as inactive: 1. In the case of C[C@@H]1CCCCO[C@@H](CN(C)S(=O)(=O)c2ccccc2)[C@@H](C)CN([C@H](C)CO)C(=O)c2cc(NS(=O)(=O)c3cn(C)cn3)ccc2O1, the relative growth is reported as inactive: 0.942. For O=C(CCNNC(=O)c1ccncc1)NCc1ccccc1, the relative growth was inactive: 1.01. For C[C@@H]1CN([C@@H](C)CO)S(=O)(=O)c2ccc(C3=CCCC3)cc2O[C@@H]1CN(C)S(=O)(=O)c1ccc(F)cc1, the relative growth was inactive: 1. In the case of COc1ccc(CN(C)C[C@@H]2OCCCC[C@H](C)Oc3ccc(NC(=O)C4CCCCC4)cc3C(=O)N([C@H](C)CO)C[C@@H]2C)cc1, the relative growth is reported as inactive: 0.998. In the case of C[C@@H]1CN([C@H](C)CO)C(=O)Cc2cc(NC(=O)c3ccncc3)ccc2O[C@H]1CN(C)S(=O)(=O)c1cn(C)cn1, the relative growth is reported as inactive: 0.982. C[C@@H]1CCCCO[C@@H](CN(C)CC2CCCCC2)[C@H](C)CN([C@H](C)CO)C(=O)c2cc(NS(=O)(=O)c3ccc(Cl)cc3)ccc2O1 was tested, and the relative growth was inactive: 0.991. In the case of COc1ccc(CN(C)C[C@@H]2OCCCC[C@@H](C)Oc3ccc(NS(=O)(=O)c4c(C)noc4C)cc3C(=O)N([C@H](C)CO)C[C@H]2C)cc1, the relative growth is reported as inactive: 0.987. With O=C1/C(=C/c2cn(-c3ccccc3)nc2-c2ccc(OCc3ccccc3F)cc2)SC(=S)N1CCS(=O)(=O)O the relative growth was inactive: 1. In the case of C[C@H](CO)N1C[C@H](C)[C@H](CN(C)CC2CCCCC2)Oc2ccc(NC(=O)Nc3ccc(C(F)(F)F)cc3)cc2C1=O, the relative growth is reported as inactive: 0.906. For CC(=O)O[C@H]1C[C@@H]2CC[C@@H]3[C@H](CC[C@@]4(C)[C@H]3C[C@H]([N+]3(C)CCCCC3)[C@@H]4OC(C)=O)[C@@]2(C)C[C@@H]1N1CCCCC1, the relative growth was inactive: 1. For CC(=O)c1ccc[nH]1, the relative growth was inactive: 1.13. Cc1ccc(S(=O)(=O)N(C)C[C@H]2OCCCC[C@@H](C)Oc3ccc(NC(=O)C4CCCCC4)cc3C(=O)N([C@H](C)CO)C[C@H]2C)cc1 was tested, and the relative growth was inactive: 0.976. For COc1ccc(S(=O)(=O)N(C)C[C@H]2Oc3ccc(NC(=O)Cn4cnnn4)cc3CC(=O)N([C@H](C)CO)C[C@@H]2C)cc1, the relative growth was inactive: 0.99. In the case of C=CCOC(=O)[C@@H]1[C@H]2C(=O)O[C@H](c3ccccc3)[C@H](c3ccccc3)N2[C@H](c2ccc(OCCOC(=O)NCCCCCC(=O)NO)cc2)[C@]12C(=O)Nc1ccc(I)cc12, the relative growth is reported as inactive: 1.01. For C[C@@H]1CCCCO[C@@H](CN(C)C(=O)C2CCCCC2)[C@H](C)CN([C@H](C)CO)C(=O)c2cc(NC(=O)Nc3ccc4c(c3)OCO4)ccc2O1, the relative growth was inactive: 1.02. C[C@@H]1CN([C@@H](C)CO)C(=O)Cc2cc(NS(=O)(=O)c3ccc(Cl)cc3)ccc2O[C@H]1CN(C)Cc1ccc(-c2ccccc2)cc1 was tested, and the relative growth was inactive: 0.99.
